# Assay results published in the supplement of paper PMC7826260.
# Some of the results follow. Each Rep nickase domain was tested in vitro on the same pool of single strands for 1 h at 37 °C with 3 µM enzyme; only the middle of the 90-letter strands is printed. Numbers give uncut DNA relative to the enzyme-free pool, as log2; uncut sequences lie near 0, cut ones below; no hit call is given. The scaling is to total reads; where an enzyme cuts many sequences, the uncut ones exceed 0.
# Columns and labels:
# Experiment in all cases: uncleaved DNA left, log2 of reads against the no-enzyme library (log2 ratio); higher = less cleavage (more negative = more Rep cleavage of the k-mer); sequences stand for … in CTCGTCCG…ACCGGAGA
# [1] = tested on: T1, Rep nickase domain of Muscovy duck circovirus
# T1 sequence (residues 1-111, tag not shown): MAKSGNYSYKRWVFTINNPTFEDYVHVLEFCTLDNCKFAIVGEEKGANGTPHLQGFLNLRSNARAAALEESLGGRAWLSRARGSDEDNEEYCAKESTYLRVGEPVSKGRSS
# Protocol: (§1)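 A pool of 90-nt single-stranded DNAs with seven random bases just before the constant AC of the nick site (name = the seven bases) was cut by 3 µM recombinant His6-SUMO-tagged Rep nickase domain (300 nM DNA, 50 mM HEPES pH 8.0, 50 mM NaCl, 1 mM MnCl2, 1 h, 37 °C, three replicates). Uncut DNA was amplified and sequenced.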
# [2] = tested on: T2, Rep nickase domain of banana bunchy top virus
# T2 sequence (residues 1-94, tag not shown): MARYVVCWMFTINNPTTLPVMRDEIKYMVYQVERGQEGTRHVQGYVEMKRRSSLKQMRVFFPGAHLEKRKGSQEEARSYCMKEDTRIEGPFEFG
# Protocol: as §1
# [3] = tested on: T3, Rep nickase domain of cabbage leaf curl virus
# T3 sequence (residues 1-116, tag not shown): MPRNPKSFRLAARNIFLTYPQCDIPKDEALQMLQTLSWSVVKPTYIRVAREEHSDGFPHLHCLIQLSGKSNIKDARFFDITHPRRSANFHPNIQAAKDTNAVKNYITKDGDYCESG
# Protocol: as §1
# [4] = tested on: T4, Rep nickase domain of chickpea chlorotic dwarf virus
# T4 sequence (residues 1-124, tag not shown): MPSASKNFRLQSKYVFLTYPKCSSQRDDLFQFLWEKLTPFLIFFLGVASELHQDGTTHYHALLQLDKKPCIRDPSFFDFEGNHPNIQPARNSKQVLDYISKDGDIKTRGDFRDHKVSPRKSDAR
# Protocol: as §1
# [5] = tested on: T5, Rep nickase domain of faba bean necrotic yellows virus
# T5 sequence (residues 1-98, tag not shown): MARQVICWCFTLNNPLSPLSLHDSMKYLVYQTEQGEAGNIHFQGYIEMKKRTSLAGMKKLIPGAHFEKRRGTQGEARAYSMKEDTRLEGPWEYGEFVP
# Protocol: as §1
# [6] = tested on: T6, Rep nickase domain of maize striate mosaic virus
# T6 sequence (residues 1-117, tag not shown): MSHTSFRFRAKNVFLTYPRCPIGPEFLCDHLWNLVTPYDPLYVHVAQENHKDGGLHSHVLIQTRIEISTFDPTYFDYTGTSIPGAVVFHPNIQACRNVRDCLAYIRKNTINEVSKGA
# Protocol: as §1
# [7] = tested on: T7, Rep nickase domain of porcine circovirus 2
# T7 sequence (residues 2-116, tag not shown): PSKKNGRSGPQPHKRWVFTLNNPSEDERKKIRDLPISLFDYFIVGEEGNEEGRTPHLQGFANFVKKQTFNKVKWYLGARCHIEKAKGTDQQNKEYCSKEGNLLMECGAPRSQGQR
# Protocol: as §1
# [8] = tested on: T8, Rep nickase domain of tomato golden mosaic virus
# T8 sequence (residues 1-124, tag not shown): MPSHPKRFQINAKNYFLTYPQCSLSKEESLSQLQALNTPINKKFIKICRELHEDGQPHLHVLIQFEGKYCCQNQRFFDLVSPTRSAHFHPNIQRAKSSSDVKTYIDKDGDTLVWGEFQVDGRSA
# Protocol: as §1
# [9] = tested on: T9, Rep nickase domain of tomato yellow leaf curl virus
# T9 sequence (residues 1-136, tag not shown): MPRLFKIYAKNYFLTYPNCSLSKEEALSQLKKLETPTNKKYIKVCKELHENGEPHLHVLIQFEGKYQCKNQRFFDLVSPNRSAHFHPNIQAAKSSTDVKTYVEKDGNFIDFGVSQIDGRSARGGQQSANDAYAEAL
# Protocol: as §1
# [10] = tested on: T10, Rep nickase domain of wheat dwarf virus
# T10 sequence (residues 1-137, tag not shown): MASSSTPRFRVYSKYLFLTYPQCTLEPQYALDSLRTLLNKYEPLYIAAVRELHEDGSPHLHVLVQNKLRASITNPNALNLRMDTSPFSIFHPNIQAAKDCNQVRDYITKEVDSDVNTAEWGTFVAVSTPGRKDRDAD
# Protocol: as §1
Sequence,uncleaved DNA left (log2) [1],uncleaved DNA left (log2) [2],uncleaved DNA left (log2) [3],uncleaved DNA left (log2) [4],uncleaved DNA left (log2) [5],uncleaved DNA left (log2) [6],uncleaved DNA left (log2) [7],uncleaved DNA left (log2) [8],uncleaved DNA left (log2) [9],uncleaved DNA left (log2) [10]
TTTCGAC,0.0476,-0.0584,0.0677,-0.186,0.0964,-0.511,0.122,-0.0351,0.0481,-0.124
GTTGATT,0.128,-0.0194,0.269,0.642,-0.115,1.54,-0.0543,0.0452,0.0553,0.0789
GTCCAAC,0.0734,0.11,0.293,0.768,-0.0907,1.61,0.0563,0.0782,0.137,0.0864
TCGACGG,0.0203,0.0477,0.193,0.851,0.0737,1.74,0.195,0.0461,-0.0768,0.0919
AGAATAA,-0.116,-0.176,-0.14,-0.048,-0.0222,-0.377,-0.163,0.0309,-0.192,-0.0362
GCCTCTT,-0.815,-0.0876,0.106,-1.13,-0.023,0.156,-2.32,-0.0187,-0.182,-0.0493
CTCGCAC,0.103,-0.00865,-0.163,-0.366,0.134,-0.831,0.045,-0.0456,-0.112,-0.0895
CTGACAA,0.0371,-0.0663,0.0419,0.251,0.167,-0.00805,0.0151,-0.0749,-0.0455,0.0476
GAGTGTG,0.0506,-0.0274,-0.507,-0.474,0.0634,-0.777,-0.0784,-0.041,0.00336,-0.0662
GGATTAA,0.108,0.142,0.629,1.21,0.0689,1.9,0.198,0.202,0.184,0.262
CCAAAAG,0.087,0.141,-0.817,-0.202,0.0649,-1.21,0.141,-0.0665,-0.0396,0.0577
TTGCCTA,-0.084,-0.131,-0.323,-0.835,-0.0175,-0.862,-1.2,-0.0448,0.146,0.0673
TACTGCG,-0.0535,-0.0373,-0.182,0.806,0.0223,0.804,0.0486,-0.189,-0.342,-0.189
CGTTCAA,-0.0441,-0.0812,0.0528,0.0806,-0.129,-0.314,-0.19,-0.0776,0.0528,0.000486
CCCGTCG,0.0668,0.00284,-0.647,-0.191,-0.0233,-0.959,0.169,0.175,-0.0319,-0.0122
ACAAATG,0.0932,0.106,-0.565,-0.337,-0.012,-1.02,0.196,0.0993,0.0996,0.0754
CCCTCTT,-2.44,-0.577,-0.288,-2.24,-0.384,-0.513,-2.95,-0.215,-0.258,-0.449
TTCCCCG,-0.133,-0.185,-0.82,-0.177,-0.00253,-0.998,-0.231,-0.0893,-0.155,-0.221
CGTAGAT,0.167,0.168,0.317,0.628,0.0741,0.857,0.0455,0.00771,0.0642,0.0684
CGTCGCA,-0.0618,0.00866,-0.0983,-0.066,-0.0116,-0.23,0.145,0.0405,0.0358,0.141
CGCATGG,-0.0991,0.0291,-0.158,-0.0442,0.00462,-0.598,0.0741,-0.0216,0.00698,0.0264
CAGCAAG,0.0759,-0.0491,-0.653,-0.359,-0.0296,-0.961,0.226,-0.0469,-0.0166,-0.0418
GGTGTAC,0.0806,0.125,0.656,1.45,-0.0378,2.11,0.262,0.014,0.108,0.132
AGCCGGA,0.124,-0.0434,0.114,0.425,0.00351,0.489,0.00492,-0.0207,0.00626,-0.0465
AGCGGCG,0.0961,0.113,-0.244,-0.0919,0.0351,-0.346,0.0826,0.077,0.0848,-0.0152
CGAAGAC,-0.13,-0.0412,0.0314,0.377,0.00254,0.319,0.0264,-0.0586,-0.105,-0.0167
GAACGGC,0.0587,0.0657,0.459,1.13,0.0549,1.49,0.122,0.115,0.0148,0.0709
TACAAGG,0.101,0.0615,0.409,1.14,0.074,1.1,0.143,0.169,0.0279,0.0269
CTATCCT,-1.56,0.0405,-0.338,-2.28,0.0153,-0.634,-1.27,-0.151,-0.0302,-0.171
TCAATTC,0.0707,-0.0493,0.0925,-0.128,-0.0183,-0.867,0.00374,-0.11,0.0101,0.0307
